Measurements taken from PMC11231494.
These are yes or no findings as the source states them, for the method shown. For some assays here: In cells and extracts the contact can be indirect. Some entries that bind do so weakly or less than the wild type.

By UniProt entry, the sequences of proteins in these tests, tags left out. Where a name states a change or a piece, a line headed by the entry shows the natural chain unless it says otherwise. Chains listed by the source or under a name are the forms on record and can include a tag or linker. Residues count along the entry.
UniProt P19474: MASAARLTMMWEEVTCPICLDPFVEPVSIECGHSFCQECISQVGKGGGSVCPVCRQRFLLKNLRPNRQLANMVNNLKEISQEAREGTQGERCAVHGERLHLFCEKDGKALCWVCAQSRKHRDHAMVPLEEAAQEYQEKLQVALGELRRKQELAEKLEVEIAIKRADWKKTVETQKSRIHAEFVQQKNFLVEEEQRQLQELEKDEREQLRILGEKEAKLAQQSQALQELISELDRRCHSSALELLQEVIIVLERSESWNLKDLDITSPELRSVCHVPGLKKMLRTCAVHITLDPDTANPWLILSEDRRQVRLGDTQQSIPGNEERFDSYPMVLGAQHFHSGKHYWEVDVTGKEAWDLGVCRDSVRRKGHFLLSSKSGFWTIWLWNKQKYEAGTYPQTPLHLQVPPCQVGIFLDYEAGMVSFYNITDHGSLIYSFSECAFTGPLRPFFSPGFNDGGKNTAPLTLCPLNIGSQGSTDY
Myc-DDK-TRIM21 ΔRING (del aa 1–54): residues 55-475 of P19474
Myc-DDK-TRIM21 ΔCoiled-coil (del aa 125–235) (P19474, form named): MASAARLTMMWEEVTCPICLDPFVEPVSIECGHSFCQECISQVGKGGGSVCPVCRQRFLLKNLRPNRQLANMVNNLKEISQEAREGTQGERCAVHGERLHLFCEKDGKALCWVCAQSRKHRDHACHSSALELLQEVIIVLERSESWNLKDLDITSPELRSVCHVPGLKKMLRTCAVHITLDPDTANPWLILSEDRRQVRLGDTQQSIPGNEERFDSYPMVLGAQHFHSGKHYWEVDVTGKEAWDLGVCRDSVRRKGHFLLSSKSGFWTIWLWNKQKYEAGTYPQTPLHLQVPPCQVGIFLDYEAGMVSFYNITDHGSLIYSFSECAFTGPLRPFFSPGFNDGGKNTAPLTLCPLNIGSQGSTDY
Myc-DDK-TRIM21 ΔB-box (del aa 55–123) (P19474, form named): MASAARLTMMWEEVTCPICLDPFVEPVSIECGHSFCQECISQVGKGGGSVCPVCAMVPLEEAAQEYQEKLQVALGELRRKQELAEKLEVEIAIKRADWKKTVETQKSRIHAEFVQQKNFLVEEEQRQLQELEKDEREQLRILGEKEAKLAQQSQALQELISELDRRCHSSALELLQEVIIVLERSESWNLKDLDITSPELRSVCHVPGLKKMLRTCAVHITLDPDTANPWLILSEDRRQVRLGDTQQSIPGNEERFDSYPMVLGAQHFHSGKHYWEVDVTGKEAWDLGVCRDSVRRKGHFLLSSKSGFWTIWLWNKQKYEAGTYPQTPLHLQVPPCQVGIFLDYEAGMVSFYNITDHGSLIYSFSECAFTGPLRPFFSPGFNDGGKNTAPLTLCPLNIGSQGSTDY
UniProt O15205: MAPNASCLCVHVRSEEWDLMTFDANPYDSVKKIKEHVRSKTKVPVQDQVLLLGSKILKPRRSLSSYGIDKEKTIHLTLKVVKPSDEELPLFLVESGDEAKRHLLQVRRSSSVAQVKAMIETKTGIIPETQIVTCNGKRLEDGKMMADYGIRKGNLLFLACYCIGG
tagless recombinant FAT10AV (O15205, form named): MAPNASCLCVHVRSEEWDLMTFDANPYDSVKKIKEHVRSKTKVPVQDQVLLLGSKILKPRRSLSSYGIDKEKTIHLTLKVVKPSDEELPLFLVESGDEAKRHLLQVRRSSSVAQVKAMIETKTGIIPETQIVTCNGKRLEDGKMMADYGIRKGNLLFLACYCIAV

What was measured:
[1] = biological target: Myc-DDK-tagged TRIM21 (human) (UniProt P19474); test: co-IP; HEK293T or HEK293 WT cells co-transfected (also UBA6 KO or USE1 KO cells reconstituted with HA-UBA6 or HIS-USE1); cleared Triton X-100 lysate, FLAG M2 affinity gel overnight at 4°C, blot for HA under reducing conditions (4% 2-ME); what is detected is the covalent FAT10-TRIM21 conjugate at ∼80 kD; some samples treated with TNF, cycloheximide and/or MG132
[2] = biological target: Myc-DDK-TRIM21 ΔCoiled-coil (del aa 125–235) (human) (UniProt P19474); test: as above
[3] = biological target: Myc-DDK-TRIM21 ΔRING (del aa 1–54) (human) (UniProt P19474); test: as above
[4] = biological target: Myc-DDK-TRIM21 ΔB-box (del aa 55–123) (human) (UniProt P19474); test: as above
[5] = biological target: Myc-DDK-tagged TRIM21 (human) (UniProt P19474); test: co-IP; HEK293 UBA6 KO cells co-transfected, with or without 600 U/ml TNF; FLAG immunoprecipitation, blot for HA under reducing conditions; read-out is the covalent conjugate
[6] = biological target: Myc-DDK-tagged TRIM21 (human) (UniProt P19474); test: co-IP; HEK293 USE1 KO cells co-transfected, with or without 600 U/ml TNF; FLAG immunoprecipitation, blot for HA under reducing conditions; read-out is the covalent conjugate
[7] = biological target: Myc-DDK-tagged TRIM21 (human) (UniProt P19474); test: condition: only in HEK293 USE1 KO cells reconstituted with USE1-C188A; co-IP; HEK293 USE1 KO cells reconstituted with HIS-USE1 C188A; FLAG immunoprecipitation, blot for HA under reducing conditions; read-out is the covalent conjugate
[8] = biological target: 6xHIS-3xFLAG-FAT10 (UniProt O15205); test: pull-down
[9] = biological target: recombinant human C-Myc-DDK-TRIM21 (human) (UniProt P19474); test: in vitro FAT10ylation assay (SDS-PAGE and Western blot); 0.54 μg FLAG-UBA6, 3 μg FAT10 or FAT10-AV and 1 μg C-Myc-DDK-TRIM21 in 20 μl 20 mM Tris-HCl pH 7.6, 50 mM NaCl, 10 mM MgCl2, 0.1 mM DTT, with or without 4 mM ATP, 37°C (60 min in the methods, 30 min in the legend); blot for TRIM21 under reducing conditions; read-out is the covalent conjugate; both purified

Substance: HA-FAT10AV (from UniProt O15205 1-165)
- binding [1]: no binding

Substance: HA-tagged FAT10 (from UniProt O15205 1-165)
- binding [1]: binds
- binding [2]: no binding
- binding [3]: binds
- binding [4]: binds
- binding [5]: no binding (condition: in HEK293 UBA6 KO cells)
- binding [6]: no binding (condition: in HEK293 USE1 KO cells)
- binding [7]: no binding

Substance: endogenous TRIM21 (from UniProt P19474 1-475)
- binding [8]: binds

Substance: tagless recombinant FAT10 (from UniProt O15205 1-165)
- binding [9]: binds

Substance: tagless recombinant FAT10AV (from UniProt O15205 1-165)
- binding [9]: no binding
